# Data taken from the supplement of paper PMC3334620.
# The full ranking holds about 33,000 sequences; the median of “E-score (-0.5 to 0.5)” is about -0.054, and the highest 2% start at about 0.35. This is one part of the list.
# Molecular target: T1, Stb5 (UniProt P38699)
# T1 sequence: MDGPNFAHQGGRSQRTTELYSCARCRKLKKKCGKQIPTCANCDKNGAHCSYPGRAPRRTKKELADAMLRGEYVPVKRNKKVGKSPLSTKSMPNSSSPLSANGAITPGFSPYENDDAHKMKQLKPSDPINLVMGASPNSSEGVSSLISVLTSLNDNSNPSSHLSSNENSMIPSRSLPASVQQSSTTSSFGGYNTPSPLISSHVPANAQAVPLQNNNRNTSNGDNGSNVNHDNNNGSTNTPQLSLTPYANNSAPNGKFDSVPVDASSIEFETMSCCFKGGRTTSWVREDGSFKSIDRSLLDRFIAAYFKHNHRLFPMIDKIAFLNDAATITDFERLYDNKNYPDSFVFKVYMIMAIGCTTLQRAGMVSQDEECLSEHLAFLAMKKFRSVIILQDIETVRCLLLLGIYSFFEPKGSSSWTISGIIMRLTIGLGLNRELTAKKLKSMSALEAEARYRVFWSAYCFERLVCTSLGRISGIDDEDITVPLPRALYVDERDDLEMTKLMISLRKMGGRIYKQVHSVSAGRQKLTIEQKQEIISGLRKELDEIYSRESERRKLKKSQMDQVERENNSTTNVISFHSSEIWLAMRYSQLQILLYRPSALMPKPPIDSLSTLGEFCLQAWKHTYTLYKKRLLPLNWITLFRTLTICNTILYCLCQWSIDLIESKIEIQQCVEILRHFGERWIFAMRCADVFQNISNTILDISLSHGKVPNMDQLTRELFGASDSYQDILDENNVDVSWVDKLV
# Test: PBM E-score (8-mer binding enrichment) (E-score (-0.5 to 0.5)); higher = stronger / more preferred TF binding; most listed sequences are background and not binding sites
# Conditions: protein concentration: 200 nM; construct: GST-full length
# Method in brief: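 Yeast transcription factors, full-length or as DNA-binding domains, were expressed with a GST tag using PURExpress in vitro transcription/translation. At about 100-200 nM they were applied to universal all-10-mer Agilent arrays, double-stranded by primer extension on fresh or once-stripped slides. Fluorescent anti-GST detected bound protein, and masliner normalised the scans. E-scores for ungapped eight-base words, pooled with reverse complements, came from the Universal PBM Analysis Suite.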
row,Sequence,PBM E-score
1,GCGGCAAA,0.254
2,ATGTAATC,-0.0748
3,CGCCATTA,0.208
4,CTGCAAAC,-0.23
5,CAGCAAGA,0.00075
6,CTCCTAAA,-0.143
7,CAATATTA,0.139
8,TAGGAAAA,-0.0933
9,ACCGCTTA,0.197
10,GGACGCCA,-0.0391
11,CATAGGGG,-0.164
12,GCCGACCA,0.293
13,AGACTACT,-0.313
14,ACAAATGA,-0.347
15,ATCCTAAC,-0.0295
16,CGAGCCGC,0.128
17,AGGTAAGG,-0.224
18,TGAGCTAA,-0.223
19,AGAGACAA,-0.246
20,GATAGGCA,-0.305
21,CAAACTCC,0.253
22,GGAGCTAA,0.334

row,Sequence,PBM E-score
1,AACATGGT,-0.217
2,ATGGTCAG,-0.183
3,TATGAAAA,0.0172
4,GAACTGGA,-0.0425
5,CGCGTGAA,-0.0581
6,AGGATTAA,0.0794
7,AACAAGCG,0.191
8,TACCGAAA,0.187
9,CCTTACAC,0.0417
10,TACACAGA,-0.0662
11,AAGAAGCT,-0.206
12,ATGCTTAG,-0.213
13,GCGTTGCC,-0.0138
14,CTTAGCGA,-0.135
15,AGCGCCTG,0.121
16,GACCATTA,-0.0262
17,ACTTACAC,-0.00546
18,CAATGTCG,-0.0242
19,AATGAGTC,-0.0615
20,GTCACTGA,-0.09
21,CATCTTCG,0.0343
22,ACATGCCT,-0.191

row,Sequence,PBM E-score
1,TATTGTCA,-0.137
2,ATTCTGAG,-0.0348
3,ATTTCACA,-0.157
4,ACCGCCGA,0.405
5,CTTACAAA,0.0141
6,CGCGATCC,0.0632
7,GACAATGC,-0.0381
8,GAGATCCA,-0.176
9,TAGTTATA,0.112
10,GTCAATTA,0.0558
11,ACGGTGCG,0.281
12,ACACGAAA,0.115
13,AGAGATTC,-0.0575
14,GGCAACAA,-0.109
15,AGATCTGG,-0.154
16,AATTCCGA,0.265
17,GGTGAGTA,-0.0384
18,AGCAGCGC,0.106
19,CAAAACCC,0.2
20,AGTAGCAA,-0.109
21,CCAGCGTC,0.0515
22,CACTCATC,-0.0493

row,Sequence,PBM E-score
1,CGCGCCAC,-0.00899
2,AGACCCAA,-0.25
3,GTGGAAAA,-0.114
4,GTGCGAAA,-0.0753
5,AGACCACG,-0.196
6,AAACAAGA,-0.232
7,AGGACTTC,-0.196
8,CTCAGCTC,-0.141
9,CCTCCCTA,-0.227
10,GATGGAGA,0.0972
11,GAGGAAGC,-0.152
12,ATGACAGC,-0.138
13,ACGGGGCC,0.221
14,CTCGATCC,-0.0217
15,CTTTAAGC,0.0877
16,CTCTACCC,-0.316
17,AAGATCTC,-0.157
18,GGGAACAC,0.0338
19,AATACTAG,-0.111
20,CGACCAAC,-0.0601
